# Experimental data published in PubChem BioAssay AID761 (NMMLSC, 2007).
# Hit rate of the full screen: of about 190,000 compounds, about 400 (0.21%) were called active. The inconclusive results got no clear call from the source; some entries with a clear call stand among them for comparison.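 How the source made its calls: active means percent activity GTP binding at least 20 points away from the 100% baseline, either down as inhibitor or up as activator; inconclusive means compound flagged as likely green fluorescent from well-wide comparison; inactive means the rest.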
# Molecular target: Cell division control protein 42 homolog (Homo sapiens) (UniProt P60953)
# Test: wildtype Cdc42 fluorescent GTP binding changes, either direction – biochemical, multiplex bead flow cytometry, Bodipy-GTP, primary screen (AID 761);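 further: median bead fluorescence of bound Bodipy-FL-GTP at 100 nM; 0% = excess unlabeled GTP control and 100% = no compound control; below 100% means less GTP binding so inhibitor and above means activator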
# Conditions: GST-Cdc42 beads, at 10 µM, actives lie on both sides
# Chain of UniProt P60953 (P60953 whole entry, looked up): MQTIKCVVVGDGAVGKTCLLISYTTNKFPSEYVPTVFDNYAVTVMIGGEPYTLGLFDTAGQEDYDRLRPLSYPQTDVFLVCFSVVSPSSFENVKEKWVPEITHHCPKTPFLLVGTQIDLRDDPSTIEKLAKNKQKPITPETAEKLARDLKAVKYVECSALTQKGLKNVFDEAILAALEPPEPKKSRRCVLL
row,Structure (SMILES),percent activity (GTP binding)
1,Cc1ccc(C2=Nc3cccnc3C(c3ccccc3)=NN2)cc1,inactive: 97%
2,COc1ccc(N2CCN(C(=O)Cn3cnc4c(cnn4-c4ccc(C)cc4)c3=O)CC2)cc1,inactive: 99%
3,O=C1NC(=S)N/C1=C/c1cc([N+](=O)[O-])ccc1N1CCOCC1,inconclusive: 89%
4,O=C(CCc1ccccn1)N1CCCC(CNS(=O)(=O)c2cccs2)C1 (configuration not stated),active: 61%
5,CCn1c(=O)c(C(=O)Nn2c(C)nc3ccccc3c2=O)c(O)c2ccccc21,inconclusive: 92%
6,O=C(O)CC(NC(=O)C1CCCCC1)c1ccc(OC2CCCC2)cc1 (configuration not stated),inconclusive: 94%
7,CCC1SC(CC)C(=O)N(CC(=O)Nc2ccc3c(c2)OCO3)C1=O (configuration not stated),inactive: 101%
8,CC1CCCN(c2ccc3nc4ccccc4c(=O)n3n2)C1 (configuration not stated),inactive: 84%
9,Cc1ccc[n+](CC(=O)Nc2cc(C(F)(F)F)ccc2N2CCOCC2)c1,inconclusive: 93%
10,Cn1nc([N+](=O)[O-])c(C(C#N)c2ccccn2)c(Cl)c1=O (configuration not stated),active: 79%
11,Nc1ccc(C2CCCc3nonc32)c2nonc12 (configuration not stated),inconclusive: 94%
12,COC(=O)c1cc2c(C)cc3ccc(C)cn3c-2c1C(=O)OC,inconclusive: 91%
13,CCCCN(C)CCNC(=O)CCNC(=O)Cn1ccc2ccccc2c1=O,inactive: 98%
14,CCc1ccccc1NC(=O)CSc1nc2n[nH]c(C)c2c(=N)n1-c1cccc(OC)c1,inconclusive: 88%
15,C=CCN1C(=O)C(Cc2ccc(SC(F)F)cc2)SC1=Nc1ccc(C(=O)O)cc1 (configuration not stated),inactive: 90%
16,COc1cccc(C2=NN(C(=O)c3ccccc3)C(O)(C(F)(F)F)C2)c1 (configuration not stated),inconclusive: 105%
17,COc1ccc(-c2ccc(SCC(=O)Nc3nnc(C)s3)nn2)cc1,inconclusive: 97%
18,O=C(/C=C/c1cn(-c2ccccc2)nc1-c1ccccc1)Nc1ccc(C(=O)O)cc1,inconclusive: 78%
19,CCN(CC(=O)Nc1ccc(C)c(F)c1)CC(=O)NC(C)(C)C,inactive: 98%
20,c1cnc(N2CCN(Cc3ccc4c(c3)OCO4)CC2)nc1,inconclusive: 104%
21,C/C(=N/NC(=O)c1ccoc1C)c1ccc(NC(=O)c2ccncc2)cc1,inactive: 99%
22,CNC(=O)c1ccc(Nc2nnc(-c3ccc(C)c(S(=O)(=O)NCC4CCCO4)c3)c3ccccc23)cc1 (configuration not stated),inconclusive: 99%
23,CC1CCOC2(O1)C(=O)N(CN1CCN(c3ccccc3F)CC1)c1ccccc12 (configuration not stated),inconclusive: 107%

row,Structure (SMILES),percent activity (GTP binding)
1,Cc1ccc(NC(=O)Cn2nc(C)cc2C)cc1,inconclusive: 107%
2,Cc1c(C(=O)Nc2nc3ccccc3[nH]2)oc2c(Cl)cccc12,inconclusive: 83%
3,CCCNC(=S)N1CCC(n2cnc3ccccc32)CC1,inconclusive: 97%
4,COc1ccc(CCCc2nnc(SCC(=O)N/N=C\c3ccc(O)c(OC)c3)o2)cc1C,inconclusive: 87%
5,COc1cc(/C=N/NC(=O)[C@H](Cc2c[nH]c3ccccc23)NC(=O)OCC(C)C)cc([N+](=O)[O-])c1O,inconclusive: 89%
6,c1ccc2c(-c3cn4ccccc4n3)c[nH]c2c1,inactive: 98%
7,COc1ccccc1NC(=O)C(=O)N(c1cccnc1)C(C(=O)NC(C)(C)C)c1ccccc1F (configuration not stated),inconclusive: 95%
8,Cc1cc(C)c(/C([O-])=C(/C(=S)Nc2ccc(SC(F)F)cc2)[n+]2ccccc2)cc1C,inconclusive: 86%
9,CSc1ccccc1NC(=O)CN1CC(C)OC(C)C1 (configuration not stated),inactive: 99%
10,COc1ccc(-c2nn3c(-c4ccccn4)nnc3s2)cc1OC,inactive: 82%
11,CCCC(=O)Oc1ccc(N(C(=O)CCC)S(=O)(=O)c2cccs2)cc1,inconclusive: 93%
12,COCCn1cnc2c1c(=O)n(CC(=O)OCC#N)c(=O)n2Cc1ccccc1,inactive: 92%
13,C[C@H](NC(=O)OC(C)(C)C)C(=O)NCC1CCC(C(=O)O)CC1 (some centres not stated),inconclusive: 104%
14,CC(=O)c1c(C)nc(-c2ccc(Cl)cc2Cl)n1O,inconclusive: 100%
15,CCN=C1S/C(=C\c2ccc(OC)c(OCC)c2)C(=O)N1CC,inconclusive: 168%
16,Cc1ccc(S(=O)(=O)N(CC(O)CN2CCOCC2)c2cc(Cl)ccc2Cl)cc1 (configuration not stated),inconclusive: 108%
17,CC(=O)c1cccc(NC(=O)N2CCCC2C(=O)NCCC(C)C)c1 (configuration not stated),inconclusive: 107%
18,CC1CCCCN1C(=O)CSc1nc(N)cc(=O)[nH]1 (configuration not stated),inconclusive: 103%
19,c1ccc2sc(NC3=NCN(CC4CCCO4)CN3)nc2c1 (configuration not stated),inactive: 97%
20,CC(C)OC(=O)CSc1nnc(-c2cnccn2)n1Cc1ccco1,inconclusive: 91%
21,Cc1ccc(-c2csc(NC(=O)c3cccc(S(=O)(=O)N4CCN(C)CC4)c3)n2)cc1,inconclusive: 94%
22,Cc1cc(Cl)cc(Cl)c1OCC(=O)NCc1ccco1,inconclusive: 96%
23,COc1ccc(C2=NCCn3cccc32)c(OC)c1,inconclusive: 107%

row,Structure (SMILES),percent activity (GTP binding)
1,N#Cc1c(N)nc2c(c1-c1ccccc1)CCC2,inactive: 98%
2,O=C(c1cc2cc([N+](=O)[O-])ccc2oc1=O)N1CCOCC1,inconclusive: 98%
3,Cn1ncc(N=Cc2ccc([N+](=O)[O-])cc2)c1C(=O)Nc1ccccc1,inactive: 99%
4,COc1ccccc1-n1ccnc1SCC(=O)NCc1ccco1,inactive: 100%
5,Cn1c(=O)n(Cc2ccccc2)c(=O)c2c1nc1n2CCN1Cc1ccco1,inconclusive: 82%
6,CSc1cccc(NC(=O)CSc2ccccc2)c1,inconclusive: 92%
7,O=C(NC1=NCCS1)c1cc(-c2cccnc2)nc2ccccc12,inconclusive: 93%
8,CCN(c1ccccc1)S(=O)(=O)c1cc(C(=O)OC(C)C(=O)Nc2ccc3c(c2)OCCO3)ccc1C (configuration not stated),inconclusive: 91%
9,NC1=NC(=O)/C(=C\c2ccsc2)S1,inactive: 95%
10,CCOc1cc(/C=N/NC(=O)CSc2cccc3cccnc23)ccc1O,inconclusive: 75%
11,CNC(=O)c1cn(-c2ccccc2)c(=O)c2ccccc12,inconclusive: 105%
12,CN=CC1=C(O)C(C(=O)OC)C(C)(C)CC1=O (configuration not stated),inactive: 91%
13,COc1ccc(C2=NN(C(=O)c3cccs3)C(c3ccccc3OC)C2)cc1OC (configuration not stated),inconclusive: 88%
14,CN(c1ccccc1)S(=O)(=O)c1cccc(C(=O)Nc2nccs2)c1,inconclusive: 93%
15,Cn1c(CNc2nc(-c3ccccc3)cs2)nnc1SCC(=O)c1ccccc1,inconclusive: 94%
16,O=C(/C=C/c1ccc(F)cc1)NC(Cc1c[nH]c2ccccc12)C(=O)O (configuration not stated),inconclusive: 82%
17,CCOC(=O)C1=C(N)Oc2cc(O)ccc2C1c1ccc([N+](=O)[O-])cc1 (configuration not stated),inconclusive: 92%
18,CC(C)Cc1nnc(NC(=O)CSc2nc(O)c(Cc3ccccc3)c(=O)[nH]2)s1,inconclusive: 90%
19,Cc1ccc(N=Nc2c(N)[nH]n3c(=O)c4c(nc23)CCCC4)cc1,inactive: 86%
20,CCOC(=O)c1[nH]ncc1CN1CCCC(C(=O)c2ccc(C(C)(C)C)cc2)C1 (configuration not stated),inactive: 99%
21,NS(=O)(=O)c1ccc(CNC(=O)c2csc3c2CCCC3)cc1,inactive: 97%
22,Cc1nn(-c2ccccc2)c2sc(C(=O)O)cc12,inconclusive: 77%
23,CC(=O)NCCn1c(SCC(=O)NCCc2ccc(S(N)(=O)=O)cc2)nc2ccccc2c1=O,inconclusive: 92%

row,Structure (SMILES),percent activity (GTP binding)
1,COc1cc2[nH]c(=S)nc(NCCCOC(C)C)c2cc1OC,inconclusive: 71%
2,COCCN1C(=O)/C(=C/c2ccc(N3CCCC3)cc2)SC1=S,inconclusive: 114%
3,CNc1nc(-c2ccccn2)nnc1-c1ccccc1,inconclusive: 105%
4,COc1cccc(OCC(=O)O/N=C(\N)c2ccc(OC)c(OC)c2)c1,inconclusive: 92%
5,Cc1cc(N/N=C/c2ccc(O)cc2O)nc(-n2nc(C)cc2C)n1,inconclusive: 81%
6,CCc1nnc(NS(=O)(=O)c2ccc(N=Cc3c(C)[nH]n(-c4cccc(Cl)c4)c3=O)cc2)s1,inconclusive: 93%
7,NC(N)=NC1=NC(=O)/C(=C/c2ccccc2-n2cccn2)S1,inconclusive: 91%
8,C=CCOc1ccc(/C=N/NC(=O)C(C)Sc2ccccn2)cc1OC (configuration not stated),inconclusive: 99%
9,N#C/C(=C/c1ccc(N2CCCCC2)o1)C(=O)Nc1ccc(Cl)cc1,inconclusive: 105%
10,CCOC(=O)c1cccc(NC(=O)CCS(=O)(=O)c2ccc(Br)s2)c1,inconclusive: 107%
11,CCCCCN1C(=O)Cn2c(nc3ccccc3c2=O)C1C (configuration not stated),inactive: 97%
12,Cc1cc(C)n2c(SCc3nnc(-c4cccs4)o3)nnc2n1,inconclusive: 93%
13,CCOC(=O)c1ccc(S(=O)(=O)NC2CCCCCCC2)n1C,inconclusive: 88%
14,C=CCSc1nc(N)c(C#N)c(-c2ccc(C)cc2)c1C#N,active: 78%
15,NC(=O)c1c(NC(=O)c2ccncc2)sc2c1CCCC2,inactive: 85%
16,O=C(CSCc1ccccc1)N=Nc1c(O)[nH]c2ccccc12,inconclusive: 100%
17,C/C(=N\NC(=O)c1ccc(Cl)cc1)c1cccc(NC(=O)C(C)C)c1,inconclusive: 104%
18,O=C(CN1C(=O)C2C3C=CC(C3)C2C1=O)NCCc1ccccc1Cl (configuration not stated),inconclusive: 110%
19,O=C(CCN1CCCCC1)c1ccc2c(c1)OCCO2,inactive: 105%
20,CC1(C)CC(=O)C/C(=N\NC(=O)C2CC23CCC3)C1 (configuration not stated),inactive: 99%
21,CSc1nc2c(c(=O)[nH]1)C(c1ccncc1)C(C(=O)OC(C)C)=C(C)N2 (configuration not stated),inconclusive: 106%
22,O=C(CN1C(=O)C2C3CCC(C3)C2C1=O)N1CCN(Cc2ccccc2)CC1 (configuration not stated),inactive: 97%
23,Cc1cccc(NS(=O)(=O)c2cc(C(=O)N3CCOCC3)ccc2Cl)c1,inactive: 96%
